Laboratory results reported in patent US20110212845A1, “Biomarkers for predicting the sensitivity and response of protein kinase CK2-mediated diseases to CK2 Inhibitors” (priority 2009, published 2011).

What was measured:
SUM-149PT xenografts = assay: Human IL-6 plasma levels in mice bearing SUM-149PT xenografts; format: in vivo; details: xenograft model; depending on tumor size; 50 mg/kg BID PO×3 d, 75 mg/kg PO daily or BID×8 d
Procedure: The effect of CK2 inhibitors on the secretion of IL-6 by aggressive SUM-149PT xenografts was also studied.
Plasma was isolated, tumors were extracted and weighted. Human IL-6 levels in plasma were determined by ELISA and resulted values were normalized for tumor weight.

[1] = Oral availability across species; details: in vivo, read-out: % F (oral availability)
5 CYP isoforms = assay: In vitro CYP inhibition; format: in vitro ADME
hERG channel = hERG channel (Homo sapiens, UniProt Q12809); assay: In vitro hERG channel inhibition
Sequence of UniProt Q12809 (Q12809 whole entry): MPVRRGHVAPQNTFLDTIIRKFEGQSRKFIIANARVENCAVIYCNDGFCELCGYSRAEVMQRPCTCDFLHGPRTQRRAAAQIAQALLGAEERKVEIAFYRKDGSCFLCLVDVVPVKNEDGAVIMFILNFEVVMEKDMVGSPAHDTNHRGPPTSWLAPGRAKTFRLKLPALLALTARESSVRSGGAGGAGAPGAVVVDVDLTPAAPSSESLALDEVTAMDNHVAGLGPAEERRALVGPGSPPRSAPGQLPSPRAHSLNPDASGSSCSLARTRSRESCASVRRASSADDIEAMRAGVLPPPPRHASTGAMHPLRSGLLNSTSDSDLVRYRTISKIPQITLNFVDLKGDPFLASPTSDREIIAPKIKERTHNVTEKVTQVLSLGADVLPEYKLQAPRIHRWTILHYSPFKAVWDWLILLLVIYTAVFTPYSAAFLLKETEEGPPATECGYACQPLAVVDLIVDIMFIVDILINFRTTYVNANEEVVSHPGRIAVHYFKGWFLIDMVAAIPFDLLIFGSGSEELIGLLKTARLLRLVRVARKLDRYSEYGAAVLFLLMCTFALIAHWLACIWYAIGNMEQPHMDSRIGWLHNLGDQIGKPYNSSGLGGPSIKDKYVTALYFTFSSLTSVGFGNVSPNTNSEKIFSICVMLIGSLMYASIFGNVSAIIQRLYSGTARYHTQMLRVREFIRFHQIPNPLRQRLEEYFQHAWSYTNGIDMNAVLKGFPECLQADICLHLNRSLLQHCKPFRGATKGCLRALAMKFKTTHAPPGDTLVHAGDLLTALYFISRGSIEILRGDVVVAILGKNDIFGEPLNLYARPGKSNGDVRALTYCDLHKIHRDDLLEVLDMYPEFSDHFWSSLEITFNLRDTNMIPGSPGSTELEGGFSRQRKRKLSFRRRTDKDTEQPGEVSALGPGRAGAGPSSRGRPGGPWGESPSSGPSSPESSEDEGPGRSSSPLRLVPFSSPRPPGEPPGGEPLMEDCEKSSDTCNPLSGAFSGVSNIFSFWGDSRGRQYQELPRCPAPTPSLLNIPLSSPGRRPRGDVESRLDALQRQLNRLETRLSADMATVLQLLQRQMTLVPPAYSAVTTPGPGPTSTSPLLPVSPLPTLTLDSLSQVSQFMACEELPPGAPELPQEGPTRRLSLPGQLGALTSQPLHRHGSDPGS

[2] = test system: cancer cells and normal fibroblast cells; assay: Caspase 3/7 apoptosis induction in cancerous versus normal cells; format: cell-based
Source text: The X-axis illustrates the cell type. BT-474: breast cancer cells; Mia PaCa 2 and BxPC3-3: pancreatic cancer cells; SK-OV-3 and A2780: ovarian cancer cells; A375: melanoma cells; CCD18Co: normal colon fibroblast cells; CCD1058 and CCD1068: normal skin fibroblast cells; and Mrc5 and IMR90: normal lung fibroblast cells.

[3] = test system: BT-474 breast cancer and SK-OV-3 ovarian cancer tumors; assay: Tumor growth in breast and ovarian cancer xenograft models; format: in vivo; details: models of breast and ovarian cancer; 25 or 75 mg/kg bid, 35 days
IL-6 and IL-8 = assay: Phase I clinical study, IL-6 and IL-8 levels; format: in vivo, human
Procedure: Oral doses are administered twice daily for twenty-one consecutive days of a four week cycle. […] Response by RECIST is determined after every 2 cycles. Serial blood and plasma samples are collected on the first and final dosing days of Cycle 1 (i.e., Day 1 and Day 21) for pharmacokinetic analysis and for pharmacodynamic biomarker evaluations (specifically, total and phosphorylated forms of p21 and Akt).

Q: What does the source list for `O=C(O)c1ccc2c(c1)nc(Nc1cccc(Cl)c1)c1ccncc12` [CX-4945]?
A: reduction in human IL-6 plasma levels (SUM-149PT xenografts): 40-60%; bioavailability [1]: 20 to 48%; in vitro inhibition of 5 CYP isoforms (5 CYP isoforms): no significant in vitro inhibition; in vitro inhibition of the hERG channel (hERG channel): no significant in vitro inhibition; mutagenicity (Mutagenicity): non-mutagenic; apoptosis (Caspase 3/7 activity) in cancer cells ([2]; cancer cells): induces significant levels of apoptosis in cancer cells; apoptosis (Caspase 3/7 activity) in normal cells ([2]; normal cells): remain unaffected; tumor growth in vivo [3]: inhibit tumor growth; serum IL-6 levels in patients (IL-6 and IL-8; inflammatory breast cancer and prostate cancer patients, after 21 days of dosing): marked reduction in serum IL-6 levels; IL-8 levels in patients (IL-6 and IL-8; patients with prostate, thyroid/papillary and Leydig cell tumors): reduced significantly
